Results published in PubChem BioAssay AID1645886 (National Center for Advancing Translational Sciences (NCATS), 2021).
“And” between values parts separate entries of the source, which are not always exact repeats. Equal entries are not always repeated. Hit rate of the full screen: of about 16,000 compounds, about 260 (1.6%) were called active. The shares of active, inactive and inconclusive entries below differ from those in the screen. Calls follow the shape of the dose curve; as a rule, active = well fitted inhibition curve with a large enough effect; inconclusive = small, poorly fitted or top-dose-only effect; inactive = no such curve, though single readings can be large or run the other way. A potency beside an inconclusive call is a rough fit, not a confirmed value.

These compounds were tested against Rap guanine nucleotide exchange factor 4 (Homo sapiens) (UniProt Q8WZA2) (assay: Validation qHTS for antagonist of cAMP-regulated guanine nucleotide exchange factor 4 (EPAC2)). Conditions: EPAC2 Rap1B BODIPY-GDP exchange, fluorescence; series mostly up to 112 µM.
Sequence of UniProt Q8WZA2 (Q8WZA2 whole entry, looked up): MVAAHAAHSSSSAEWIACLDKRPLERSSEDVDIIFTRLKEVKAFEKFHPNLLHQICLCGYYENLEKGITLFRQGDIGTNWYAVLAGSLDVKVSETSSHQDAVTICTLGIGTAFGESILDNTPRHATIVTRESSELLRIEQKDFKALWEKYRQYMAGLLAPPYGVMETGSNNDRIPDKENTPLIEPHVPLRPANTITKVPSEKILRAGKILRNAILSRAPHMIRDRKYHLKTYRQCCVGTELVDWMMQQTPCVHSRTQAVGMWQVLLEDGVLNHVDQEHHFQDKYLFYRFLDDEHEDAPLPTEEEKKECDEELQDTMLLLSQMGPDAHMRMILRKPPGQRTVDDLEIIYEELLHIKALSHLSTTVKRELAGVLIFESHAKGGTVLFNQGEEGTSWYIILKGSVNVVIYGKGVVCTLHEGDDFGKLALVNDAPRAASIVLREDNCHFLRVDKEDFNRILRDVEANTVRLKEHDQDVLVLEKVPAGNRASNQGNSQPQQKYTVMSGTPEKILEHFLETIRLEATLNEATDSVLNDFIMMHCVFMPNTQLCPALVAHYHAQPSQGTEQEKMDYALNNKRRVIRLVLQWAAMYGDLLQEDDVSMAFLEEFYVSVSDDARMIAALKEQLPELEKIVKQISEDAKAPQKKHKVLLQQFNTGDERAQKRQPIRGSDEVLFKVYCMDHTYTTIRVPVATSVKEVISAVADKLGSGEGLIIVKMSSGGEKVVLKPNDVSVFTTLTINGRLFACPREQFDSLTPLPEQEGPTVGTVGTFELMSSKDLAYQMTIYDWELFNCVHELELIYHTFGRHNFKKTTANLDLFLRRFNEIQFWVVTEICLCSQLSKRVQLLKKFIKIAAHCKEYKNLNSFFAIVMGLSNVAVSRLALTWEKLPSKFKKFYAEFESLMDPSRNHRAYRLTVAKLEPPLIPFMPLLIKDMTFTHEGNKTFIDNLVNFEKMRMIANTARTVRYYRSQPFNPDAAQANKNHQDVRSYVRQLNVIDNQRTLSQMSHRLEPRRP
Description: Principle Investigator: Xiaodong Cheng Ph.D. The University of Texas Medical Branch, […], TX MLPCN Grant: NS066510 In multi-cellular eukaryotic organisms, the effects of cAMP are transduced by two ubiquitously-expressed intracellular cAMP receptors, the classic protein kinase A/cAMP-dependent protein kinase (PKA/cAPK) and the more recently discovered exchange protein directly activated by cAMP/cAMP-regulated guanine nucleotide exchange factor (EPAC/cAMP-GEF). Both PKA and EPAC are ubiquitously expressed in all tissues, and an increase in intracellular cAMP levels will lead to the activation of both PKA and EPAC. Therefore, careful dissections of the individual role and relative contribution of EPAC and PKA within the overall cAMP signaling in various model systems are critical for further elucidating the mechanism of cAMP signaling. To date no EPAC-specific antagonists and agonist, as well as isoform-specific agonists have been reported, and developing EPAC-specific pharmacological probes to determine the physiological functions that EPAC play in the overall cAMP-mediated signaling remains a major challenge within the research field. Furthermore, identified regulators of EPAC may lead to new mechanism-based therapeutic strategies specifically targeting the EPAC / cAMP-signaling components as EPAC has been implicated to play important roles in major human pathological conditions such as diabetes, heart disease, and cancer. This qHTS will be used to screen the Molecular Libraries Small Molecule Repository (MLSMR) as a concentration-titration series using the NCGC unique quantitative screening (qHTS) platform to find activators for EPAC1. In addition, this assay will also be used as a counterscreen for the EPAC2 qHTS. This fluorescent based assay is developed and validated for EPAC1 that measures exchange using EPAC effector Rap1 complex with BODIPY-GDP, a GDP analog with a tethered fluorophores. Activators are identified by monitoring the change in fluorescence signal as the exchanged free BODIPY-GDP has a reduced fluorescence compared to Rap1-bound BODIPY-GDP. Increase in signal (activation) is the desired outcome for the EPAC1 agonist while no activity in this assay is desired for the EPAC2 agonist counterscreen. Reference: [1] de Rooij, J., Zwartkruis, F. J., Verheijen, M. H., Cool, R. H., Nijman, S. M., Wittinghofer, A., and Bos, J.L. (1998) Nature 396, 474-477.
Briefly, three uL of reagents (100 nM EPAC2, 250 nM RAP1B-BODIPY-GDP, 50 uM GDP) were dispensed into a 1536-well Greiner black solid-bottom medium binding assay plate. Controls and test compounds (23 nL) were transferred to the plate via a Kalypsys pin tool equipped with a 1536-pin array. The plates were centrifuged at 1,000 rpm for 15 seconds followed by 5 minute incubation at room temperature. The assay plates were read at 5 minute intervals for 30 minutes in the ViewLux plate reader using 480nm excitation and 540nm emission filters. The results were normalized to the agonist positive control of 6.5 mM cAMP.
Also: nearly all actives have a fitted effect of over 40% in size.
Potency is read from the fitted curve at half-maximal effect; tags tell the direction and shape of the fitted curve.

Compound | Potency
COC(=O)C1=C(C)NC(C)=C(C(=O)OCC(C)=O)C1c1ccccc1[N+](=O)[O-] (stereo unspecified) | inactive
Fc1ccc(C(c2ccc(F)cc2)N2CCN(C/C=C/c3ccccc3)CC2)cc1 | inconclusive: 50.1 µM [inhibitor, partial curve, poor fit]
O=C1[C@H](Cc2ccccc2)NC/C=C\C[C@@H](c2ccco2)N1Cc1ccccc1 | inconclusive: 25.1 µM [inhibitor, full curve]
C1=Cc2ccccc2/C1=C\c1ccc2c(c1)OCO2 | inconclusive: 50.1 µM [inhibitor, partial curve, poor fit]
CC(=O)c1ccc[n+](CC(=O)c2ccc(F)cc2)c1 | inconclusive: 89.1 µM [inhibitor, single point]
COc1ccccc1C(=O)Nc1cccc(N2CCC(NCc3cnn(-c4ccccc4)n3)CC2)c1 | inactive
Cc1ccc(Nc2c(F)cccc2Cl)c(CC(=O)O)c1 | inconclusive: 100 µM [inhibitor, single point]
O=C(Nc1cccc(F)c1)N1CCCC2(CCN(C(=O)c3ccncc3)CC2)C1 | inconclusive: 11.2 µM [inhibitor, single point]
COc1cccc(-c2cncnc2NCc2cccc(C)c2)c1 | inconclusive: 44.7 µM [inhibitor, partial curve, poor fit]
c1ccc(CNc2ncncc2-c2cccnc2)cc1 | inactive
O=C(OC[C@H]1O[C@@H](OC(=O)c2cc(O)c(O)c(OC(=O)c3cc(O)c(O)c(O)c3)c2)[C@H](OC(=O)c2cc(O)c(O)c(OC(=O)c3cc(O)c(O)c(O)c3)c2)[C@@H](OC(=O)c2cc(O)c(O)c(OC(=O)c3cc(O)c(O)c(O)c3)c2)[C@@H]1OC(=O)c1cc(O)c(O)c(OC(=O)c2cc(O)c(O)c(O)c2)c1)c1cc(O)c(O)c(OC(=O)c2cc(O)c(O)c(O)c2)c1 | active: 22.4 µM
COc1cccc(-c2nccc(NCc3cccs3)n2)c1 | inconclusive: 50.1 µM [inhibitor, partial curve]
CCOC(=O)C1=C[C@@]2(CC)CCCN3CCc4c(n1c1ccccc41)C32 (stereo partly specified) | inconclusive: 31.6 µM [inhibitor, partial curve, poor fit]
Cn1cnc2c(NCc3ccccc3)nc(NCCO)nc21 | inconclusive: 79.4 µM [inhibitor, partial curve, poor fit]
O=C(c1cc(C(F)(F)F)cc(C(F)(F)F)c1)N1CCC2(CC1)CN(c1ccccn1)C2 | inconclusive: 0.891 µM [inhibitor, full curve, poor fit]
N#Cc1ccc(CN2CCCC3(CCN(C(=O)c4cc(C(F)(F)F)cc(C(F)(F)F)c4)CC3)C2)cc1 | inconclusive: 39.8 µM [inhibitor, partial curve]
CCCCCCCCCCCCCCCC(=O)OC[C@@H](O)[C@H]1OC[C@H](O)[C@H]1O | inactive
O=C1CCN(CCc2ccccc2)CCN1[C@H](COc1ccccc1)c1ccccc1 | inconclusive: 79.4 µM [inhibitor, partial curve, poor fit]
COc1cccc(CN2CCC3(CC2)c2ccccc2[C@@H](NC(=O)c2ccccc2OC)[C@@H]3O)c1 | inactive

Compound | Potency
Cc1cccc(C(=O)O)c1O | inconclusive: 100 µM [inhibitor, partial curve]
COc1cccc(Cn2c(=O)c(-c3ccc(F)c(F)c3)nc3cncnc32)c1 | inconclusive: 0.794 µM [inhibitor, full curve]
CCCCCCCCCCCCCCCC[n+]1ccc(C)cc1 | inconclusive: 28.2 µM [inhibitor, full curve, poor fit]
COC(=O)c1ccccc1C(=O)N1CCOc2ccc(CN3CCN(c4ccccn4)CC3)cc2C1 | inconclusive: 100 µM [inhibitor, single point]
CC1(C)CCC(C)(C)c2cc(NC(=O)c3ccc(C(=O)O)cc3)ccc21 | inconclusive: 44.7 µM [inhibitor, partial curve, poor fit]
O=c1cc(-c2ccc(O)c(O)c2)oc2cc(OC3OC(CO)C(O)C(O)C3O)cc(O)c12 (stereo unspecified) | inconclusive: 89.1 µM [inhibitor, single point]
Cc1ccccc1-c1ccc(CN2CCc3nnc(C(NS(C)(=O)=O)C(C)C)n3CC2)cc1 (stereo unspecified) | inconclusive: 8.91 µM [inhibitor, full curve]
O=C(c1n[nH]c2c1CCCC2)N1CCOc2ccc(C(O)C3CCCCC3)cc2C1 (stereo unspecified) | inconclusive: 15.8 µM [inhibitor, partial curve, poor fit]
Cc1cccc(CNc2cc(-c3c(C)noc3C)ncn2)c1 | inconclusive: 44.7 µM [inhibitor, partial curve, poor fit]
COc1ccc(/C=C/C(=O)NCC2Cc3cc(Cl)cc(-c4ncccn4)c3O2)cc1 (stereo unspecified) | inactive
CO[C@H]1C=CO[C@@]2(C)Oc3c(C)c(O)c4c(O)c(c(/C=N/N5CCN(C6CCCC6)CC5)c(O)c4c3C2=O)NC(=O)/C(C)=C\C=C[C@H](C)[C@H](O)[C@@H](C)[C@@H](O)[C@@H](C)[C@H](OC(C)=O)[C@@H]1C | inconclusive: 50.1 µM [inhibitor, partial curve, poor fit]
CN(C)c1ccc(-c2cncnc2NCc2cccs2)cc1 | inconclusive: 56.2 µM [inhibitor, partial curve, poor fit]
CCCCCCCCN1[C@@H](CC(C)=O)c2cc(C(F)(F)F)ccc2S1(=O)=O | inconclusive: 0.316 µM [inhibitor, full curve, poor fit]
CO[C@H]1C[C@@H]2CC[C@@H](C)[C@@](O)(O2)C(=O)C(=O)N2CCCC[C@H]2C(=O)O[C@H]([C@H](C)C[C@@H]2CC[C@@H](OCCO)[C@H](OC)C2)CC(=O)[C@H](C)/C=C(\C)[C@@H](O)[C@@H](OC)C(=O)[C@H](C)C[C@H](C)/C=C/C=C/C=C/1C | inconclusive: 50.1 µM [inhibitor, partial curve, poor fit]
COc1cccc(Nc2ncc3nc(-c4ccc(F)cc4)c(=O)n(C)c3n2)c1 | inactive
Cc1ccc(CN2[C@@H](c3ccccc3)COCCS2(=O)=O)cc1 | inconclusive: 50.1 µM [inhibitor, partial curve, poor fit]
CCOC(=O)/C=C1\CN(Cc2ccc(OC)cc2)S(=O)(=O)c2ccc(C(F)(F)F)cc21 | inconclusive: 56.2 µM [inhibitor, partial curve, poor fit]
COc1ccc(CN2CCOc3c(cc(-c4ncc(C(F)(F)F)cc4Cl)cc3OCC3CCCO3)C2)c(O)c1 (stereo unspecified) | inconclusive: 100 µM [inhibitor, single point]
CC(=O)O[C@@H]1CC2CCC1(C)C2(C)C (stereo partly specified) | inactive

Compound | Potency
COc1cc(C)c(CN2CCc3nnc(C(C)NC(=O)c4cccnc4)n3CC2)cc1C (stereo unspecified) | inconclusive: 7.94 µM [inhibitor, full curve, poor fit]
Cc1cc(Cl)ccc1OCC(=O)NCC1Cc2cc(-c3cnccn3)ccc2O1 (stereo unspecified) | inactive
c1ccc2c(c1)CCCN2 | inconclusive: 15.8 µM [inhibitor, partial curve]
COc1ccc(-n2c(=O)c(-c3cccs3)nc3cnc(N4CCOCC4)nc32)cc1 | inactive
COc1ccc(CNc2ccnc(-c3ccccc3Cl)n2)c(OC)c1 | inconclusive: 56.2 µM [inhibitor, partial curve, poor fit]
COc1ncc2nc(-c3cccs3)c(=O)n(-c3ccccc3)c2n1 | inconclusive: 39.8 µM [inhibitor, single point]
CCCCCCCC(=O)OC[C@H](CO)OC(=O)CCCCCCC | inconclusive: 7.08 µM [inhibitor, partial curve, poor fit]
Cc1ccc(CN2[C@H](C)[C@H](c3ccccc3)OCCS2(=O)=O)cc1 | inconclusive: 56.2 µM [inhibitor, partial curve, poor fit]
C=CCCCCCCCCCCCc1ccco1 | inconclusive: 22.4 µM [inhibitor, full curve]
COC(=O)C[C@H]1c2cc(C(F)(F)F)ccc2S(=O)(=O)N1C1CCCCC1 | inconclusive: 28.2 µM [inhibitor, single point]
C[C@@H]1CCC(=O)N(C[C@@H](C)CSc2ccc(Br)cc2)CC1 | inconclusive: 35.5 µM [inhibitor, partial curve, poor fit]
CC(=O)N1CCN(c2ccc(OC[C@H]3CO[C@](Cn4ccnc4)(c4ccc(Cl)cc4Cl)O3)cc2)CC1 | inconclusive: 56.2 µM [inhibitor, partial curve] and inconclusive: 56.2 µM [inhibitor, partial curve, poor fit]
Cc1nc2sccn2c1CN1CCOc2ccc(CN3CCN(c4ccc(F)cc4)CC3)cc2C1 | inconclusive: 35.5 µM [inhibitor, partial curve, poor fit]
COc1cc(=O)n2c(c1C(=O)N(C)Cc1ccsc1)CCN(Cc1cnn(C)c1C)CC2 | inconclusive: 7.08 µM [inhibitor, full curve, poor fit]
CCOC(=O)[C@@]12C[C@@H]1/C(=N/O)c1ccccc1O2 | inconclusive: 56.2 µM [inhibitor, partial curve]
COCC(=O)Nc1cc(C(=O)N[C@H]2CCCCNC2=O)c2c(c1)nc(-c1ccncc1)n2C | inactive
NCCC(=O)[N-][C@@H](Cc1cnc[nH]1)C(=O)O.[Zn] | inactive
O=c1c(-c2ccc(F)c(F)c2)nc2cncnc2n1Cc1ccc(F)cc1 | inconclusive: 17.8 µM [inhibitor, full curve, poor fit]
